± gives the standard deviation of the averaged measurements. This is one part of the list.
tested on: PfAP2-EXP AP2 domain (GST-tagged); assay: gcPBM binding intensity (ln(normalized median fluorescence intensity)); higher = stronger DNA binding
Procedure, shortened: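 Binding intensity values are the highest Masliner-normalised natural-log median intensity among replicate spots of either probe orientation. The binding step lasted 1 h in 1× PBS with 1% milk, 0.2 mg/ml BSA, 0.5% salmon testes DNA and 0.03% Triton X-100, using GST-tagged P. falciparum DNA-binding domains expressed in E. coli on an Agilent 4 × 180k array of primer-extended double-stranded 36-bp intergenic genomic probes plus negative controls. Alexa488 anti-GST antibody and a 488 nm scan detected bound protein.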

Sequence	gcPBM binding intensity (ln)
ATATATGTTTTTATATGTACTTATAATGTGTGTATA [XGTACX_site5165]	8.62 ± 0.38
AATTTAAAAAAAATCACACACAGAAAAAAAAAAAAA [CACACA_site2322]	8.46 ± 0.54
TTCTGACCAATGCTATAAAATAATACAAAAGAAAAA [GTGCAC_negctrl_site3]	8.47 ± 0.54
TGAAGAGGAAACAAACAAAATGAATAATTAAAAAGG [CACACA_negctrl_site1601]	8.76 ± 0.48
TATATCCACATTTTTAGTACTTAAAAATAAATAAAC [XGTACX_site3826]	8.56 ± 0.21
ATATAACATAGACACACACACATATAAATATATTAT [CACACA_site7865]	8.7 ± 0.41
CTTTATAAAATAAGAGTGCGTTATATTGAATTGTAT [GTGCAC_site9390]	8.685 ± 0.064
ATATAAGATTTAAGAAGTACAATTATACAGTAGATC [XGTACX_site7501]	8.79 ± 0.32
GAATAAATTAAAAATGCACACTTTGATGGGTACATT [CACACA_site5220]	8.26 ± 0.16
ACGTTTTATAATTAATGTACAAATATTAAAATTGCA [XGTACX_site7869]	8.65 ± 0.23
TTATTTATTTTAAATTCACACATCGTGCTATTATAT [CACACA_site5003]	8.31 ± 0.28
TCATATATTTATGTATGTACATATATATATAGATTA [XGTACX_site380]	8.16 ± 0.38
TATGAATGGTTAAGTACACACATATTAAGATATGTA [CACACA_site5852]	8.22 ± 0.35
TATATTTGCAGTAATAATAATTATTATAAAAGATAA [XGTACX_negctrl_site547]	8.66 ± 0.4
AAAAATATAATATAATGTACACAAAAAAAAAAATTC [XGTACX_site3657]	8.62 ± 0.49
TTTTTATAACGTAATAAATAAAACGTCTATACTATA [XGTACX_negctrl_site176]	8.34 ± 0.45
TAAAGATATTATTTTTGTACATATTGATATAATGAA [XGTACX_site6571]	8.29 ± 0.52
TATATTATTATAATTTGTACATATCTAATTATATAT [XGTACX_site5342]	8.44 ± 0.49
AATTAGACATAATATACACACATATATTATAGATAT [CACACA_site7297]	8.43 ± 0.34
AATGATAATATTTCCTTCTTTTTTACTTCTTTCTTT [CACACA_negctrl_site776]	8.73 ± 0.58
AAAATGGTTTATAAATGTACATATATTATATATAAC [XGTACX_site7959]	8.68 ± 0.38
CCTATCCAGACATATACACACATATCTATTTATATA [CACACA_site5001]	8.73 ± 0.43
TTTACTTTCCCAAGTTGTACTGCTTCTAAGCTTTTT [XGTACX_site2708]	8.78 ± 0.54

Sequence	gcPBM binding intensity (ln)
TATAAAAAATAATACACACACATGGCGACAAAATAA [CACACA_site2420]	9.07 ± 0.45
CATATAAAATAATTCACACAAATATACAAATACCCA [CACACA_site5340]	8.64 ± 0.5
TATTTAATTTTTAAATGTACATATAAAATAATATAT [XGTACX_site2422]	8.62 ± 0.4
AAAAAAAATTTCTTCTGTACGCATAAATTTTTATTA [XGTACX_site8721]	8.54 ± 0.26
TTTTTCAGAAAAGAAACACACATATATATATTTATA [CACACA_site2372]	8.46 ± 0.4
ATTATTTTTTTTGAAGTGCAATATTATTTTTAATCA	8.45 ± 0.18
TATATTTTTATGTGTGTGCACAAAATAACAAAATAT [GTGCAC_site9596]	9.03 ± 0.014
CAATTCAATATATATACACACACACTATTAATAATT [CACACA_site9256]	8.52 ± 0.41
TATACTACCCAGAGCTGTACAAAATAATAATAAGTT [XGTACX_site1045]	8.84 ± 0.52
ATGGTTATATTTGAAGTGCAAAAAAAAATATATGTA	8.9 ± 0.35
ATGTGGATTTTATAATGTACATATGATATTATTTTG [XGTACX_site7930]	8.43 ± 0.36
GTTAAGTGGATATATACACACATATGCAATACATGA [CACACA_site7427]	8.81 ± 0.5
ATTCCTTTATTATCACGTACTTATAAAATATAGTAT [XGTACX_site7498]	9.01 ± 0.38
TTTTTCATTTAGCTTTTACACACTATATATTATTGA [CACACA_site7888]	8.85 ± 0.4
TTTTAATAAATCATTTTCCTAATATTTATATTTGCT [TGCATGCA_negctrl_site232]	8.2 ± 0.13
TTAAATAAAATAAAAACATGCACACTTTATTTTTTT [TGCATGCA_site719]	8.5 ± 0.24
TTATATATATATTGTTCACACATAATATAAATATTT [CACACA_site5835]	8.21 ± 0.32
ATAAACAGATAAAAGGGTACACACATATATACATGT [XGTACX_site452]	8.84 ± 0.36
CTCTTTTCTTATAATACACACAGTAATATTTATATA [CACACA_site6824]	8.81 ± 0.28
AATAAAAAAAATTTCTGTACATATATTTATTATATA [XGTACX_site1883]	8.28 ± 0.41
CAAACCCACCAACACACACACACAAAAATGATTAAA [CACACA_site2432]	8.49 ± 0.68
GAAGATATATAATAATTCATAGTTTTTTAATTTAAA [TGCATGCA_negctrl_site295]	8 ± 0.52
ATATATTTTGATTGCACACAGAATTTAAATCATGAT [CACACA_site2343]	8.56 ± 0.3

Sequence	gcPBM binding intensity (ln)
TACTTTTTTATTTGGTGTACAAATAAAATCATAATG [XGTACX_site1802]	8.655 ± 0.049
AAAATAAAAAAAATAAATAAAAAAAATAATAATAAA [CACACA_negctrl_site563]	8.28 ± 0.49
TCATAAATATAAAGTGTGCACTTGAATAATATGTAT	8.83 ± 0.057
TAAATAAATCTGTGCTTGCACTTTTTTTGTTATTTT	8.27 ± 0.28
ATATAAACATATAATAGTACACTTCGATAATTTTAT [XGTACX_site3321]	8.38 ± 0.29
GTACCATCAAAATAAATATATATATATATATATTTT [GTGCAC_negctrl_site646]	8.44 ± 0.33
ATTTAACATATAAAATGTACATATATATATATATTT [XGTACX_site2525]	8.45 ± 0.25
GAGCCCAAAAAATTAGGTACGTATAAAGAGGTATTT [XGTACX_site5348]	8.58 ± 0.49
TTTCTTTTTTCTTCAGTGCATTAAAATTAACAAAAG	8.86 ± 0.18
TTTGTGTTGTATTTTTGTACATAAAATAAACTTAAA [XGTACX_site4637]	8.51 ± 0.38
TCTTTTTTCATATTTTCACACATGTCTTTATATTTA [CACACA_site6025]	9.14 ± 0.37
CATATATATATTGGAAGTACATATTTAATATTCATT [XGTACX_site3545]	8.63 ± 0.23
AGGAAAATTTTATTTGCACACATTATTACGTCTAAA [CACACA_site2337]	8.44 ± 0.24
ACATGTAATATAATGTGTACATATACAAAGGTATAT [XGTACX_site4145]	8.57 ± 0.28
ATAAAGTATATTATATGTACATATATATATTATATA [XGTACX_site1345]	8.3 ± 0.28
AGATGAGAAATATATACACACAATAATACCTATTTA [CACACA_site876]	8.27 ± 0.21
TGGGTATATATAAAAGGTACACAAAATGAAGATATA [XGTACX_site4994]	8.98 ± 0.52
TTTTCTGTGTTTTTGGGTACACACAAATAGCTTGTA [XGTACX_site8553]	8.86 ± 0.27
TAATTTCTTATGTATTGTACAAATAATATATTATAT [XGTACX_site1037]	8.64 ± 0.33
CAATTTTACTCATAAACACACATATATATGTTATTA [CACACA_site3152]	8.44 ± 0.39
ATATGTGTTAAAAATGCACACAAAAAAATATACATA [CACACA_site7988]	8.69 ± 0.49
AAAAAAAGGATGTACGTATCATAATTTTATTTTATA [CACACA_negctrl_site1543]	8.24 ± 0.33
TTTTACAAATGTTTTACACACACATAATTGTATCAA [CACACA_site4166]	8.43 ± 0.34

Sequence	gcPBM binding intensity (ln)
CTTATTTTATTCGAATGTACATAATTGTTAGACATT [XGTACX_site8583]	8.66 ± 0.39
TGATATTATATTGTGATGCACTTTAAAAATATAAAG [GTGCAC_site9509]	8.46 ± 0.11
ATGGTTTAATTATATACACACTCGAAAATAACGACA [CACACA_site3258]	8.52 ± 0.5
TATCTCATGCGCACAAAAATATATGCAAAGAGTATA [TGCATGCA_negctrl_site201]	8.64 ± 0.17
CTTAAGTAAAATTAAAGTACATGGACAAAAAATATA [XGTACX_site7900]	8.87 ± 0.28
AATAATAACAAATGAACACACATATAGATGAGCAAA [CACACA_site7076]	8.8 ± 0.49
ATAAATTAATGGAGAAATCTTATGAATTTATTTTAA [CACACA_negctrl_site1068]	7.97 ± 0.58
AAATAAAATATTACATGTACATGTTCATAAAAAAAA [XGTACX_site1067]	8.67 ± 0.38
TATTGTAGTCATGCACGTACAAAAGGAAAGTTAAAA [XGTACX_site4446]	9.12 ± 0.11
TAAATATAAGTGTACATACACACTTTACAATCTCAT [CACACA_site3006]	8.43 ± 0.25
AATATATACATATATACACACACATATATTATATAT [CACACA_site7980]	8.51 ± 0.43
TACATACACAGACACACACACATATATATATATATA [CACACA_site3557]	10.2 ± 0.2
AATAAAAAGGAACACACACACACACCGATATATATA [CACACA_site5895]	8.86 ± 0.57
AAAGAAGAAAAATATAGTACAGGGCACATGTCCTGT [XGTACX_site6293]	8.45 ± 0.35
AAAAAAAAAAAAATTGCATGTAAATGAAATAATAAA [TGCATGCA_site116]	8.89 ± 0.2
ATTTAAATTTAAAAAACACACATAATATGATATATA [CACACA_site1973]	8.57 ± 0.47
TTATTTTTATATTTCACACACATATACTTTTACATA [CACACA_site4097]	8.8 ± 0.47
TGTTTCTAAAAATTTACACACAAAATATTTCTACAT [CACACA_site4098]	8.51 ± 0.42
CCTATAAAACCATATACACACATATATATAAAAAAA [CACACA_site4013]	8.63 ± 0.55
TTATACGATAATATGACACACAATACAAAAATGTAA [CACACA_site1918]	8.48 ± 0.37

— the supplement of paper PMC11417369
